Test results reported in PubChem BioAssay AID504339 (National Center for Advancing Translational Sciences (NCATS), 2011).
Among all 390,000 compounds or so, about 17,000 (4.4%) were called active. Inconclusive results, whose numbers are uncertain, are shown with a selection of clear calls. Calls follow the shape of the dose curve; as a rule, active = well fitted inhibition curve with a large enough effect; inconclusive = small, poorly fitted or top-dose-only effect; inactive = no such curve, though single readings can be large or run the other way. Potencies beside an inconclusive call are fits to weak or partial responses and may not hold up.

Biological target: Lysine-specific demethylase 4A (Homo sapiens) (UniProt O75164)
Assay: qHTS Assay for Inhibitors of JMJD2A-Tudor Domain; also: nearly all actives have a fitted effect of over 50% in size
Conditions: AlphaScreen JMJD2A-Tudor / H3K4me3 peptide binding; series mostly up to 114 µM
Potency is read from the fitted curve at half-maximal effect; tags tell the direction and shape of the fitted curve.

UniProt O75164, sequence (O75164 whole entry, looked up, the tested form may be a part): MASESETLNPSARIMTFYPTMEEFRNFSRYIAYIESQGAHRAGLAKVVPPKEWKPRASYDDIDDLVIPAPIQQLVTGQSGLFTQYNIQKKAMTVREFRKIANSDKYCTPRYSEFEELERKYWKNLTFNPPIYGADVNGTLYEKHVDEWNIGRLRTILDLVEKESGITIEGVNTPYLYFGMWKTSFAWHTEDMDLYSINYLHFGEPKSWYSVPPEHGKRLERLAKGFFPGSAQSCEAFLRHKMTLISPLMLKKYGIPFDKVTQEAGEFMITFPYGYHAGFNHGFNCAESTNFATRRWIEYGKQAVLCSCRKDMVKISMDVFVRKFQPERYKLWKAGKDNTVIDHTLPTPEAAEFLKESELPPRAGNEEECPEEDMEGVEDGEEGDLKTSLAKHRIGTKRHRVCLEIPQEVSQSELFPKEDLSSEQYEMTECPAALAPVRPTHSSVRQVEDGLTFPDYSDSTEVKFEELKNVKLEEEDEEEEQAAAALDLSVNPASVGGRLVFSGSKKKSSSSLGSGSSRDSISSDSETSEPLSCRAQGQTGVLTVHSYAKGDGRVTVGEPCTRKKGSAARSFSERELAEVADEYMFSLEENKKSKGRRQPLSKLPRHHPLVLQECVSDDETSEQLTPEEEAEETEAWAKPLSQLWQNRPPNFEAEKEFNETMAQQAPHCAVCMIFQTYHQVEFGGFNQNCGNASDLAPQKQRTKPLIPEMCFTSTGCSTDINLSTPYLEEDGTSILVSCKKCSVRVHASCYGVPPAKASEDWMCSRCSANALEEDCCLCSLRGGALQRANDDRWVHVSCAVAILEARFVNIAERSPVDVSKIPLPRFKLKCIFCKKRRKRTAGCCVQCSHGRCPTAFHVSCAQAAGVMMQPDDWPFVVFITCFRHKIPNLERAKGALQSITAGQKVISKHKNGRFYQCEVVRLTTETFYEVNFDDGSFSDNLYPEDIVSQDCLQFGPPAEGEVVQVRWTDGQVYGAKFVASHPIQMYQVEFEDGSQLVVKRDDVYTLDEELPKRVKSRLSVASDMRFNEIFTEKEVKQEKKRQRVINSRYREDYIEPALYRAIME

Compound | Potency
COc1cccc(-n2ccnc2SCC(=O)Nc2ccccc2F)c1 | inconclusive: 79.4 µM [inhibitor, partial curve]
Cc1ccc(NC(=O)C(OC(=O)c2cnc(C)cn2)c2ccccc2)c([N+](=O)[O-])c1 (stereo unspecified) | inconclusive: 39.8 µM [inhibitor, partial curve]
Cc1ccc(CN2C(=O)C(O)(c3c[nH]c4ccccc34)c3cc(Cl)ccc32)cc1 (stereo unspecified) | inconclusive: 31.6 µM [inhibitor, partial curve]
CCOC(=O)[C@@H]1[C@H]2COc3ccc(Br)cc3[C@H]2N2C(=O)N(c3ccc(C)cc3)C(=O)[C@]12C | inactive
Cc1c(NC(=O)COC(=O)CCc2c[nH]c3ccccc23)c(=O)n(-c2ccccc2)n1C | inactive
C=CCn1c(CCC(=O)O)ccc1-c1ccccc1 | inconclusive: 70.8 µM [inhibitor, partial curve]
COC(=O)C1SCC2C(=O)N(Cc3ccc(Cl)c(Cl)c3)CC(=O)N21 (stereo unspecified) | inconclusive: 20 µM [inhibitor, partial curve]
Cc1ccc2c(c1)c1c(n2CC(O)CN2CCC(C)CC2)CCCC1 (stereo unspecified) | active: 39.8 µM
COc1ccc(OCC(O)CNCCOc2ccccc2OC)c(C(C)(C)C)c1 (stereo unspecified) | active: 22.4 µM
O=C(CSc1nnc2c(n1)[nH]c1ccccc12)NCc1ccccc1F | inconclusive: 39.8 µM [inhibitor, full curve, poor fit]
S=C(NCc1ccccn1)NN=Cc1ccccn1 | active: 31.6 µM
Cc1ccn2c(=O)c(C(=O)NCCC3=CCCCC3)c(O)nc2c1 | inconclusive: 31.6 µM [inhibitor, partial curve]
N#Cc1c(NC(=O)c2cnccn2)sc2c1CCCC2 | inconclusive: 56.2 µM [inhibitor, partial curve]
COc1ccc([N+](=O)[O-])cc1-c1nc2ccccc2nc1-c1ccccc1 | inconclusive: 50.1 µM [inhibitor, partial curve]
O=C(NCCCN1CCN(c2ccc(F)cc2)CC1)Nc1ccc(Cl)cc1 | inconclusive: 35.5 µM [inhibitor, partial curve]
COc1ccc(C2c3c(-c4c(C)cc(C)cc4O)n[nH]c3C(=O)N2Cc2ccco2)cc1 (stereo unspecified) | inconclusive: 50.1 µM [inhibitor, partial curve]
COc1cc2c(cc1OC)/C(=C/c1ccc(Br)cc1)C(=O)OC2 | inconclusive: 31.6 µM [inhibitor, partial curve]
COc1ccc(OC)c(NC(=O)CSc2nnc(-c3ccco3)n2-c2ccccc2)c1 | inconclusive: 56.2 µM [inhibitor, partial curve]
Cc1ccc(S(=O)(=O)N2CCC(n3nnc4cc(C)ccc43)CC2)cc1 | inactive
Cc1ccc(S(=O)(=O)NNC(=O)c2ccncc2)cc1[N+](=O)[O-] | active: 3.98 µM
COc1cc(O)c(C(CC(=O)N2CCCC2)c2ccc(N(C)C)cc2)c(OC)c1 (stereo unspecified) | inconclusive: 50.1 µM [inhibitor, partial curve]
COC/C=C/C1=CC2=CC(=O)C(C)(OC(=O)c3cnc4ccccc4n3)C(=O)C2=CN1Cc1ccco1 (stereo unspecified) | inconclusive: 10 µM [inhibitor, full curve, poor fit]
CCOc1cccc(CC(=O)N2CCc3c([nH]c4ccccc34)C2c2ccc(Cl)cc2)c1OCC (stereo unspecified) | inconclusive: 63.1 µM [inhibitor, partial curve]
Cc1cc(NC(=O)CN2C(=O)[C@@H]3[C@H](C2=O)[C@@H]2C[C@H]3C(Br)C2Br)no1 (stereo partly specified) | inactive

Compound | Potency
COc1ccc(-c2nnc3ccc(SCC(=O)N4CCN(c5ccccc5)CC4)nn23)cc1 | inconclusive: 89.1 µM [inhibitor, single point]
CCOc1cc(N2CCOCC2)c(OCC)cc1NC(=O)CSc1cccc[n+]1[O-] | inconclusive: 89.1 µM [inhibitor, single point]
CC(=O)NS(=O)(=O)c1ccc(NC(=O)c2ccccn2)cc1 | inconclusive: 25.1 µM [inhibitor, full curve]
COc1ccc(-c2cn(-c3ccc(C)cc3)c(=O)n2CC(=O)Nc2cccc(F)c2)cc1 | active: 79.4 µM
CCn1c(SCC(=O)NCc2ccccc2)nnc1C(CO)NC(=O)c1ccccc1 (stereo unspecified) | inactive
O=C1c2ccccc2NC(c2cccc(F)c2)N1Cc1ccco1 (stereo unspecified) | inactive
CC(C)c1ccccc1NC(=O)C1CC(=O)N(C2CCCC2)C1 (stereo unspecified) | inactive
CCc1nc(N)nc(N)c1-c1ccc(N(C)Cc2ccccc2)c([N+](=O)[O-])c1 | active: 44.7 µM
CC(=O)Oc1ccc(-c2ccc(C(=O)OCC(=O)c3c(N)n(C)c(=O)n(C)c3=O)cc2)cc1 | inactive
COc1cccc(OCCNc2cc(N3CCCCC3)ccc2[N+](=O)[O-])c1 | inconclusive: 56.2 µM [inhibitor, partial curve]
OC(COc1ccc(Cl)c2ccccc12)CN1CCN(c2ccccn2)CC1 (stereo unspecified) | inconclusive: 56.2 µM [inhibitor, partial curve]
CN(C)c1ccc(N=Nc2ccccc2C(=O)OCC(=O)N2CCCCCC2)cc1 | active: 28.2 µM
COc1ccc(NS(=O)(=O)c2cccc(C(=O)NN=Cc3cc(Br)c(O)c(Br)c3)c2)cc1 | inactive
COc1ccc(C2C(=O)N(C3CCCCCC3)CC(=O)N2Cc2ccc(C)cc2)cc1OC (stereo unspecified) | inactive
Cc1ccccc1OCCCCCn1ccnc1 | inconclusive: 89.1 µM [inhibitor, partial curve]
C=CCn1cccc(C(=O)Nc2ccc(N(C)C)cc2)c1=O | inconclusive: 17.8 µM [inhibitor, full curve]
NC(=S)Cc1nc2n(n1)Cc1ccccc1-2 | active: 25.1 µM
Oc1c(-c2cc(-c3ccco3)[nH]n2)ccc2ccccc12 | inconclusive: 89.1 µM [inhibitor, single point]
COCCn1c(SCCN2CCCCC2)nc2ccccc2c1=O | active: 2.24 µM
Cc1ccccc1OCC(=O)OCC(=O)Nc1ccc(Cl)cn1 | inactive
Cc1cc(C(=O)CNCc2ccco2)c(C)n1-c1ccc(F)cc1 | active: 3.16 µM
CCOC(=O)C1=CC[C@@H](c2ccco2)N(S(=O)(=O)c2ccc(C)cc2)[C@H]1C(=O)OCC | inactive
Cc1ccc(NC(=O)/C=C/c2ccc(C)o2)c(C)c1 | inconclusive: 56.2 µM [inhibitor, partial curve]
CCCCN(CCCC)S(=O)(=O)c1ccc(N2CCCC2=O)c([N+](=O)[O-])c1 | active: 31.6 µM

Compound | Potency
CCCOc1ccc(Cn2c(=O)oc3ccc(C)cc32)cc1OC | inactive
COc1ccc(O)c(C=NCC(C)N=Cc2cc(OC)ccc2O)c1 (stereo unspecified) | inconclusive: 31.6 µM [inhibitor, single point]
Cc1nn(C(=O)c2c(F)cccc2F)c(C)c1S(=O)(=O)N1CCOCC1 | inactive
CCOC(=O)/C=C/C(=O)Nc1ccc(Oc2ccccc2)cc1 | inconclusive: 56.2 µM [inhibitor, partial curve]
COCCN1C(=O)c2[nH]nc(-c3ccccc3O)c2C1c1ccc(Cl)c(Cl)c1 (stereo unspecified) | inconclusive: 44.7 µM [inhibitor, partial curve]
COc1ccc(OC)c(CCNC(=O)c2ccc3c(=O)[nH]c4c(C(=O)NC(C)C)sc(=S)n4c3c2)c1 | active: 56.2 µM
CC(C)C[C@H](NC(=O)c1[nH]cnc1C(=O)N[C@@H](C)C(=O)OC(C)(C)C)C(=O)OCc1ccccc1 | inactive
O=C(NCCc1ccccc1)c1cc(S(=O)(=O)N2CCCCC2)c[nH]1 | inactive
Cc1cccc(N(C)S(=O)(=O)c2ccc3c(c2)C(C)(C)C(=O)N3C)c1 | inconclusive: 79.4 µM [inhibitor, partial curve]
COc1cccc(C2C3=C(CC(C)(C)CC3=O)Nc3cc4c(cc32)OCO4)c1 (stereo unspecified) | inconclusive: 56.2 µM [inhibitor, partial curve]
N#CC1=C(N)SC(N)=C(C#N)C1Cc1ccccc1 | inconclusive: 50.1 µM [inhibitor, partial curve]
COc1cccc(CNC(=O)C23CN(Cc4ccccc4)CC2C(c2ccc([N+](=O)[O-])cc2)=NO3)c1 (stereo unspecified) | inconclusive: 22.4 µM [inhibitor, full curve, poor fit]
Cc1cccc2cc(CN(C(=S)NCC(C)C)C3CCCC3)c(=O)[nH]c12 | inconclusive: 89.1 µM [inhibitor, partial curve]
O=C(O)c1ccc(N/N=C/c2ccc(-c3ccccc3Cl)o2)cc1 | inactive
Cc1ccc(C(=O)NCc2occc2C(=O)O)o1 | inconclusive: 50.1 µM [inhibitor, partial curve]
O=C(OCc1ccc([N+](=O)[O-])cc1)c1ccc(N2CCCC2)c([N+](=O)[O-])c1 | inconclusive: 2.51 µM [inhibitor, partial curve, poor fit]
Cc1oc(C(C)(C)C)c(CN2CCCC2)c1C(=O)O | inactive
CSc1ccc(Cl)c(C(=O)NCc2ccco2)c1 | inactive
N#Cc1cnc(Sc2ccccc2)nc1 | inconclusive: 20 µM [inhibitor, partial curve]
CSc1ccccc1NC(=O)c1cc(-c2cccnc2)nc2ccc(Br)cc12 | inconclusive: 50.1 µM [inhibitor, partial curve, poor fit]
Cc1nc(SCc2nc3c(O)cccc3[nH]2)c2oc3ccccc3c2n1 | active: 28.2 µM
CC1CC(=O)N(c2ccc(NCCc3ccc(O)cc3)c([N+](=O)[O-])c2)C1=O (stereo unspecified) | inconclusive: 8.91 µM [inhibitor, full curve]
Clc1ccccc1Cn1nnc2c(N3CCCC3)ncnc21 | inactive
